Experimental data published in the supplement of paper PMC11417369.
± gives the standard deviation of the averaged measurements. This is one part of the list.

Tested on: PfAP2-LT AP2 domain (GST-tagged)
Assay: gcPBM binding intensity (ln(normalized median fluorescence intensity)); higher = stronger DNA binding
Method in brief: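 GST-fused DNA-binding domains of P. falciparum, expressed in E. coli, were applied at about 25 μg on average for 1 h to an Agilent 4 × 180k array of primer-extended double-stranded 36-bp intergenic genomic probes and negative controls. Binding intensity is the highest Masliner-normalised natural-log median intensity across replicate spots of either probe orientation, measured with Alexa488 anti-GST antibody and a 488 nm scan.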

| Sequence | gcPBM binding intensity (ln) |
| --- | --- |
| AAGTATTTTTTTACATGTACATATATATATATATAT [XGTACX_site5065] | 9.12 ± 0.46 |
| TATAAAAAATTCTTCCTTATTTTATGATATATATAT [TGCATGCA_negctrl_site57] | 8.38 ± 0.42 |
| ATTTGCAGTATTTCGGAACACACAAACATAAATATG [CACACA_site8726] | 8.82 ± 0.45 |
| TTTAATTATTAGTGTGCACACAACTATGAGTTTTTA [CACACA_site8997] | 9.07 ± 0.33 |
| AATTACATTCAATTCTGTACTAATAGTAATTCAAAA [XGTACX_site7419] | 8.47 ± 0.39 |
| CAAAAACATACCTACACACACAATATGTATTTATAA [CACACA_site5862] | 9.37 ± 0.23 |
| AAATGAATATTCATAGTGCAATATATAAATGAAAAT | 9.03 ± 0.49 |
| CATTTTTTTTTATAAATACACACGTACGGGTGCATA [CACACA_site1569] | 8.84 ± 0.4 |
| GAACATTTACGCCCCACACACCTACCAACAAAAAAA [CACACA_site7746] | 9.52 ± 0.47 |
| TTCTTAAAAAAAAATAAAATAAAAAAAAAAATAAAA [CACACA_negctrl_site99] | 8.14 ± 0.48 |
| TTCTGGCAAAATAACACACACATATATTTTATATAC [CACACA_site3242] | 9.43 ± 0.33 |
| ATAATTACATAGATTGGTACACATTTTTGATTGTAT [XGTACX_site3802] | 9.03 ± 0.38 |
| TTAAAAATGTGTGTGCGTACATAATATTTCGAAAAA [XGTACX_site8197] | 9.26 ± 0.4 |
| GTACAAATGATTAATCCTTTACTTATATATATATAT [XGTACX_negctrl_site138] | 8.96 ± 0.4 |
| TCATTTTATTATTCTACACACTTATCTATAATTATA [CACACA_site34] | 8.94 ± 0.42 |
| TTTTTCATATGACACACACACAAAAATAATGTGGAA [CACACA_site7692] | 9.26 ± 0.43 |
| AAATGAACACGAAAGGAAAAAAAAATATATATATAT [CACACA_negctrl_site267] | 9.29 ± 0.42 |
| AACACTTCATACACGTGTACAAATATAATATAGACA [XGTACX_site5671] | 9.2 ± 0.59 |
| AAAATATTCACGTGTACATATATATATATATATTAT [TGCATGCA_negctrl_site192] | 9.16 ± 0.31 |
| GGAAATAATATTATTACACACCAAAATGTATAAAAA [CACACA_site4036] | 8.95 ± 0.45 |
| ATATTAAAATTAAACGCATGCATATATTATAAAAGA [TGCATGCA_site231] | 8.96 ± 0.38 |
| CTAATTAATGGGTACATACACACATATATACATACA [CACACA_site743] | 9.1 ± 0.43 |
| TTTTTATCAAATAAATGTACACATATTAAATGAAAT [XGTACX_site555] | 8.52 ± 0.4 |

| Sequence | gcPBM binding intensity (ln) |
| --- | --- |
| TTCTGTATAACACAAATTTTTTTTTATTCACTCTGT [TGCATGCA_negctrl_site410] | 8.72 ± 0.57 |
| AATAATATAACAGAACAAAACTAAATATACACATAT [TGCATGCA_negctrl_site31] | 9.02 ± 0.39 |
| TATTTCATAATAAATTGTACGCGTAGAAAACCATGA [XGTACX_site7506] | 9.25 ± 0.44 |
| AAAAAAAAAAAAAACACACACACACGCATACAAAAT [CACACA_site6794] | 10.2 ± 0.13 |
| TTATATCTTATAAAATGTACATAAAATATATAATAT [XGTACX_site7647] | 8.51 ± 0.38 |
| ATTAATTATATAATATGTACATATTACAAATATATA [XGTACX_site1478] | 8.62 ± 0.42 |
| ATATTTTTCTTAAGTACACACTAAATAGAAACTAAA [CACACA_site4191] | 8.53 ± 0.48 |
| TTAATGTTATATGTGTGTACATATAAGTTTAGTAAA [XGTACX_site4651] | 8.94 ± 0.34 |
| TATGTATATTTTAATTGTACGTGTATGGTTGTAAAT [XGTACX_site8738] | 8.81 ± 0.39 |
| GAGAAAAATAAATACACACACATAAATAAATACATA [CACACA_site5102] | 9.74 ± 0.42 |
| CACTAATAGTGGATTACACACATATATCTGTATTTA [CACACA_site5403] | 8.98 ± 0.35 |
| TTTTTTTTTTCATTAACACACATAAATATATATATA [CACACA_site5759] | 8.56 ± 0.53 |
| TGATTAATAATTTTCTTCATACATTAAACATCTTTT [TGCATGCA_negctrl_site342] | 8.33 ± 0.52 |
| TTTGTAAGAAATAAATGTACAAAAATTAATTTTTAT [XGTACX_site8983] | 8.39 ± 0.42 |
| TTTTTTTTTTTTTTCTGTACAAATTAAATCTACATA [XGTACX_site8285] | 8.43 ± 0.25 |
| GACATAAAATTCAAAGTGCATAAATAAAATAAACCC | 9.13 ± 0.38 |
| TATTTTAATGAATTCACACATATAATTTATTTTATA [CACACA_site4538] | 8.52 ± 0.52 |
| GAAATTAAATGACATACACACTATATTATAGATTTT [CACACA_site7468] | 8.82 ± 0.4 |
| ATATTTAAAAAATGATGTACAAAAATGTAGTCACAC [XGTACX_site6208] | 8.8 ± 0.36 |
| ATATAAAACTAATTTCTTTTTCTCCTTTTATTTTGT [CACACA_negctrl_site1251] | 8.59 ± 0.49 |
| ATAGTATCTGGTAGCTGTACGAGTCGTAGAGTGTAA [XGTACX_site4936] | 9.04 ± 0.43 |
| TACTAAAAAATATAAACACACATATATTTTACATAT [CACACA_site2042] | 8.88 ± 0.57 |
| TTTAATTTGATAGACACATGCACACGTGCAATACTT [TGCATGCA_site777] | 8.91 ± 0.25 |

| Sequence | gcPBM binding intensity (ln) |
| --- | --- |
| ATATATATATATAAATGTACAGATATATTTTTTATT [XGTACX_site5445] | 9.02 ± 0.27 |
| AAAATACATAGACACACACACACACGGATATAAATA [CACACA_site7643] | 10.2 ± 0.2 |
| AATATATATTAATAAAGTACAGGAAATATTTTTACC [XGTACX_site7052] | 8.78 ± 0.29 |
| AAAAATTCTTCCCAAGCATGCGCGCGTAAAATATTT [TGCATGCA_site77] | 8.75 ± 0.34 |
| AAATTTTTTATTAGTAGTACGCATAAATATATGTAT [XGTACX_site1934] | 8.61 ± 0.32 |
| AAAAAAATAAGACACACACACAAAAAAATAAAAATA [CACACA_site6357] | 9.73 ± 0.36 |
| AAAAAAAAAAGAAAAGGTACACAGAATATATATATA [XGTACX_site6914] | 9.04 ± 0.34 |
| ATTATGAATTTTAATTGTACATTATTATAGAATGTA [XGTACX_site619] | 8.51 ± 0.4 |
| AGTTATTTTTATATTTCACACACATATACTTTTACA [CACACA_site9357] | 9.35 ± 0.36 |
| AATAATTCTTAAAGGTGTACAATATGTATATAAGAA [XGTACX_site595] | 8.87 ± 0.6 |
| GAGGGTATAATAAAAGCACACACAAAGATATAAATA [CACACA_site9087] | 9.32 ± 0.45 |
| CATGAATATTTATACATGCACACTAAAATAAAGAAT [CACACA_site2412] | 9.03 ± 0.39 |
| AAAAAATGCGACATGTGTACACATATATATATATAT [XGTACX_site1679] | 9.81 ± 0.3 |
| ACATTTTGTAAAGAATGTACATATATATATATATTC [XGTACX_site8004] | 8.88 ± 0.36 |
| TATATATATATATACACACACACACCCCAAAGCGTA [CACACA_site64] | 10 ± 0.31 |
| GAAAATATTACATACACGCACACATTAATATATTTA [CACACA_site2604] | 9.21 ± 0.4 |
| ATATATATATCAAAATGTACAAAAATAGAATTTAAA [XGTACX_site8292] | 8.67 ± 0.41 |
| CAGTAGTTTTTATGGGTGCAAAACATATATATAACA | 8.79 ± 0.54 |
| AATACATATGGGTGTACACATTATATATATATATAT [CACACA_site4601] | 9.53 ± 0.26 |
| AAACGGCTATTAAAATGTACATGTAAATATATTAAA [XGTACX_site918] | 8.91 ± 0.54 |
| ATCTTTTTACTTAATACACACACACCCAAAAAAAAA [CACACA_site8221] | 9.39 ± 0.17 |
| TACACCCACCAACACACACACACACTAATAAAAAAA [CACACA_site8060] | 10.1 ± 0.44 |
| AAAATTAAAATATCACGTACGAAGAAAAAATTAAGA [XGTACX_site6437] | 8.83 ± 0.42 |

| Sequence | gcPBM binding intensity (ln) |
| --- | --- |
| CCTTTCCTAGCACATGCACACAAAAAAAAAAAAAAA [CACACA_site8396] | 8.9 ± 0.44 |
| TATATATATATAGATGCATGCAATTACATATAACAA [TGCATGCA_site118] | 9.13 ± 0.45 |
| TTGTGTACATATTAAGTGCATATATATATATATATA | 10.1 ± 0.42 |
| AATAAATAGTAGTAGGTGCTACTATATTATATATAT [GTGCAC_site9452] | 8.79 ± 0.47 |
| TATGTAATAATAAACGGTACACTATATTGTATGAAA [XGTACX_site4648] | 8.81 ± 0.36 |
| GCATATGATGAGCATATAATCATAAGAAAAAAAAAA [CACACA_negctrl_site701] | 8.67 ± 0.52 |
| ATTTTCTATATCTTTCAACACACAAATTTTTTTTTC [CACACA_site7918] | 8.85 ± 0.45 |
| TACATCAAACAAGTATGTACATATATATATATATAT [XGTACX_site7415] | 9.67 ± 0.11 |
| TTTTATATCTACCTTTGTACATATTTATTTTTTTTA [XGTACX_site7872] | 8.95 ± 0.5 |
| TTCATAAAAAATGTAGTGCATTGAATAAAATTACAT [GTGCAC_site9393] | 8.6 ± 0.44 |
| TAAATTTTTTTTTTTTGTACACAAAAATATAATATT [XGTACX_site8151] | 8.37 ± 0.48 |
| ATATTGAAATTAAAAAAATATATGAACAAATGATGA [CACACA_negctrl_site602] | 8.67 ± 0.47 |
| TTAATTTTGGTAAATGCATGTAATTAAAAATAAAAA [TGCATGCA_site234] | 8.43 ± 0.41 |
| TTATGTAGTATAATGAGTACTAAATATAGATATGTT [XGTACX_site6335] | 8.73 ± 0.42 |
| AATATTATAAATGATACACACTTAAAATACAGACAC [CACACA_site8868] | 9.21 ± 0.42 |
| AATTACTTAAATTATTGTACCCTAATGTTAATTTCA [XGTACX_site825] | 8.64 ± 0.45 |
| ATACATTCAAAATATACACACATATATCTATAATAT [CACACA_site6576] | 9.04 ± 0.37 |
| TTTCTTTAGTAGAATGTAAAAAATATAATCTTCTTA [TGCATGCA_negctrl_site298] | 7.92 ± 0.45 |
| TATTTTGAAATGGAAAGGATATAGAACTTAAACAAA [CACACA_negctrl_site1530] | 8.39 ± 0.47 |
| TTTATAAAAAGCATAACACACACATGTCAATATATA [CACACA_site8286] | 9.15 ± 0.33 |
